Experimental data taken from PMC11995724, “Antibiotic target discovery by integrated phenotypic and activity-based profiling of electrophilic fragments” (Cell chemical biology, 2025).
The whole screen tested about 3,200 compounds, of which about 75 (2%) showed an effect of 50% or more. This is one part of the list.

What follows are molecules tested on T1, S. aureus MSSA476. Details: relative growth, OD600, TSB; 25 µM; inhibitor.
T1 construct: MSSA476
Design: species or system S. aureus MSSA476 (TSB) or V. cholerae SAD30 (LB); 384-well bacterial growth screen at 25 uM, OD600 relative to DMSO control

SMILES	% of control remaining [%]
CCC(NC(=O)CCl)c1ccc(Cl)cc1 (stereo not drawn) [6-O10, 2-chloro-N-[1-(4-chlorophenyl)propyl]acetamide]	94.5854
C=CC(=O)N1CCC(C(=O)NCc2nc(C)c(C)s2)CC1 [3-B12, N-[(4,5-dimethyl-1,3-thiazol-2-yl)methyl]-1-(prop-2-enoyl)piperidine-4-carboxamide]	135.481
N#CC(=CC=Cc1ccccc1[N+](=O)[O-])C(N)=O [8-F19, 2-cyano-5-(2-nitrophenyl)penta-2,4-dienamide]	105.228
CCOc1ccc(NC(=O)C(C)Cl)cc1 (stereo not drawn) [6-O09, 2-chloro-N-(4-ethoxyphenyl)propanamide]	87.4146
C=CC(=O)NCc1cnc(C)n1-c1ccccc1 [2-F19, N-[(2-methyl-1-phenyl-1H-imidazol-5-yl)methyl]prop-2-enamide]	112.446
CCc1ccc(NC(=O)C(C#N)=Cc2ccc(F)c(C#N)c2)cc1 [8-M20, 2-cyano-3-(3-cyano-4-fluorophenyl)-N-(4-ethylphenyl)prop-2-enamide]	59.4191
C=CC(=O)N1CCC[C@H]1Cn1cc(C2CC2)nn1 [1-L18, 1-[(2S)-2-[(4-cyclopropyl-1H-1,2,3-triazol-1-yl)methyl]pyrrolidin-1-yl]prop-2-en-1-one]	115.341
C=CC(=O)N(C[C@H]1CCCO1)C1CCC(CC)CC1 (stereo partly drawn) [1-D03, N-(4-ethylcyclohexyl)-N-{[(2R)-oxolan-2-yl]methyl}prop-2-enamide]	78.4176
Cc1cccc(N(Cc2ccccc2)C(=O)CCl)c1 [6-O07, N-benzyl-2-chloro-N-(3-methylphenyl)acetamide]	98
C=CC(=O)N1CCC(Cc2ccnn2C)CC1 [2-C19, 1-{4-[(1-methyl-1H-pyrazol-5-yl)methyl]piperidin-1-yl}prop-2-en-1-one]	106.876
C=CC(=O)Nc1ccccc1CCSC [1-A19, N-{2-[2-(methylsulfanyl)ethyl]phenyl}prop-2-enamide]	114.286
CCn1nc(C)c(C=C(C#N)C(=O)Nc2ccccc2Cl)c1C [9-F07, N-(2-chlorophenyl)-2-cyano-3-(1-ethyl-3,5-dimethyl-1H-pyrazol-4-yl)prop-2-enamide]	116.554
C=CC(=O)N(C)Cc1c(C)nn(C)c1Cl [1-C15, N-[(5-chloro-1,3-dimethyl-1H-pyrazol-4-yl)methyl]-N-methylprop-2-enamide]	104.791
C=CC(=O)N1CCN(C(=O)c2ccc(OC)c(OC)c2OC)CC1 [1-H12, 1-[4-(2,3,4-trimethoxybenzoyl)piperazin-1-yl]prop-2-en-1-one]	128.352
O=C(CCl)C1CC12CCOCC2 (stereo not drawn) [10-M15, 2-chloro-1-{6-oxaspiro[2.5]octan-1-yl}ethan-1-one]	120.625
CCN(C(=O)C(C)Cl)C1CCCCC1 (stereo not drawn) [5-I19, 2-chloro-N-cyclohexyl-N-ethylpropanamide]	97.9964
O=C(CCl)N1CC(S(=O)(=O)Nc2ccccc2)C1 [5-G10, 1-(2-chloroacetyl)-N-phenylazetidine-3-sulfonamide]	114.026
Cc1c(C=C(C#N)C(=O)NCc2ccccc2)cc(C#N)n1C [9-I15, N-benzyl-2-cyano-3-(5-cyano-1,2-dimethyl-1H-pyrrol-3-yl)prop-2-enamide]	88.6891
Cn1c(=O)c(C(=O)CCl)c(N)n(Cc2ccccc2)c1=O [10-L15, 6-amino-1-benzyl-5-(2-chloroacetyl)-3-methyl-1,2,3,4-tetrahydropyrimidine-2,4-dione]	138.125
Cc1ccc(NC(=O)CCl)cc1[N+](=O)[O-] [4-M13, 2-chloro-N-(4-methyl-3-nitrophenyl)acetamide]	77.3702
CCn1cc(NC(=O)CCl)cn1.Cl [6-I15, 2-chloro-N-(1-ethyl-1H-pyrazol-4-yl)acetamide hydrochloride]	103.805
O=C(CCl)NCc1ccccc1SC(F)(F)F [7-N12, 2-chloro-N-({2-[(trifluoromethyl)sulfanyl]phenyl}methyl)acetamide]	86.3422
C=CC(=O)N(C)CC(=O)Nc1ccc(N2C[C@@H](C)O[C@@H](C)C2)cc1 [3-H08, N-[({4-[(2R,6S)-2,6-dimethylmorpholin-4-yl]phenyl}carbamoyl)methyl]-N-methylprop-2-enamide]	117.719
Cc1csc(Cl)c1NC(=O)CCl [6-A06, 2-chloro-N-(2-chloro-4-methylthiophen-3-yl)acetamide]	78.1951
CC1CCCN1C(=O)CNC(=O)CCl (stereo not drawn) [7-L12, 2-chloro-N-[2-(2-methylpyrrolidin-1-yl)-2-oxoethyl]acetamide]	81.6327
CC(Cl)C(=O)Nc1c(Cl)cccc1Cl (stereo not drawn) [4-B16, 2-chloro-N-(2,6-dichlorophenyl)propanamide]	98.7137
C=CC(=O)N1CCC(C(=O)Nc2ccccc2NS(C)(=O)=O)CC1 [3-C06, N-(2-methanesulfonamidophenyl)-1-(prop-2-enoyl)piperidine-4-carboxamide]	101.001
C=CC(=O)NCCc1nc(-c2ccccc2)nn1C [2-M12, N-[2-(1-methyl-3-phenyl-1H-1,2,4-triazol-5-yl)ethyl]prop-2-enamide]	75.8921
O=C(CCl)NC(c1ccccc1)c1ccc(Cl)cc1 (stereo not drawn) [4-G04, 2-chloro-N-[(4-chlorophenyl)(phenyl)methyl]acetamide]	106.336
N#CC(=Cc1cccs1)C(=O)Nc1nccs1 [8-G13, 2-cyano-N-(1,3-thiazol-2-yl)-3-(thiophen-2-yl)prop-2-enamide]	89.6266
